The target of this experiment is urokinase receptor (uPAR) without the GPI anchor (UniProt Q03405, in part). As to the kind of experiment: SPR.

B1: amino-terminal fragment of uPA (uPAATF) (domain or fragment)
chain: not shown
As to B1, the dissociation constant Kd was found to be 25.1 nM.

The values are drawn from publication PMC4654616 (ACS chemical biology, 2015).
